Test results taken from PubChem BioAssay AID504333 (National Center for Advancing Translational Sciences (NCATS), 2011).
Hit rate of the full screen: of about 360,000 compounds, about 16,000 (4.4%) were called active. This list was built around the results that the source calls inconclusive (neither active nor inactive); the mix of calls is not that of the screen. Calls follow the shape of the dose curve; as a rule, active = well fitted inhibition curve with a large enough effect; inconclusive = small, poorly fitted or top-dose-only effect; inactive = no such curve, though single readings can be large or run the other way. Where the call is inconclusive, the potency comes from a doubtful curve fit.

The compounds below were run against Bromodomain adjacent to zinc finger domain protein 2B (Homo sapiens) (UniProt Q9UIF8) (assay: qHTS Assay for Inhibitors of BAZ2B). Conditions: AlphaScreen BAZ2B-H3K14Ac peptide displacement; activity change, negative = inhibition: at 114 µM (top of the series) unless noted.
UniProt Q9UIF8, sequence (Q9UIF8 whole entry, looked up, the tested form may be a part): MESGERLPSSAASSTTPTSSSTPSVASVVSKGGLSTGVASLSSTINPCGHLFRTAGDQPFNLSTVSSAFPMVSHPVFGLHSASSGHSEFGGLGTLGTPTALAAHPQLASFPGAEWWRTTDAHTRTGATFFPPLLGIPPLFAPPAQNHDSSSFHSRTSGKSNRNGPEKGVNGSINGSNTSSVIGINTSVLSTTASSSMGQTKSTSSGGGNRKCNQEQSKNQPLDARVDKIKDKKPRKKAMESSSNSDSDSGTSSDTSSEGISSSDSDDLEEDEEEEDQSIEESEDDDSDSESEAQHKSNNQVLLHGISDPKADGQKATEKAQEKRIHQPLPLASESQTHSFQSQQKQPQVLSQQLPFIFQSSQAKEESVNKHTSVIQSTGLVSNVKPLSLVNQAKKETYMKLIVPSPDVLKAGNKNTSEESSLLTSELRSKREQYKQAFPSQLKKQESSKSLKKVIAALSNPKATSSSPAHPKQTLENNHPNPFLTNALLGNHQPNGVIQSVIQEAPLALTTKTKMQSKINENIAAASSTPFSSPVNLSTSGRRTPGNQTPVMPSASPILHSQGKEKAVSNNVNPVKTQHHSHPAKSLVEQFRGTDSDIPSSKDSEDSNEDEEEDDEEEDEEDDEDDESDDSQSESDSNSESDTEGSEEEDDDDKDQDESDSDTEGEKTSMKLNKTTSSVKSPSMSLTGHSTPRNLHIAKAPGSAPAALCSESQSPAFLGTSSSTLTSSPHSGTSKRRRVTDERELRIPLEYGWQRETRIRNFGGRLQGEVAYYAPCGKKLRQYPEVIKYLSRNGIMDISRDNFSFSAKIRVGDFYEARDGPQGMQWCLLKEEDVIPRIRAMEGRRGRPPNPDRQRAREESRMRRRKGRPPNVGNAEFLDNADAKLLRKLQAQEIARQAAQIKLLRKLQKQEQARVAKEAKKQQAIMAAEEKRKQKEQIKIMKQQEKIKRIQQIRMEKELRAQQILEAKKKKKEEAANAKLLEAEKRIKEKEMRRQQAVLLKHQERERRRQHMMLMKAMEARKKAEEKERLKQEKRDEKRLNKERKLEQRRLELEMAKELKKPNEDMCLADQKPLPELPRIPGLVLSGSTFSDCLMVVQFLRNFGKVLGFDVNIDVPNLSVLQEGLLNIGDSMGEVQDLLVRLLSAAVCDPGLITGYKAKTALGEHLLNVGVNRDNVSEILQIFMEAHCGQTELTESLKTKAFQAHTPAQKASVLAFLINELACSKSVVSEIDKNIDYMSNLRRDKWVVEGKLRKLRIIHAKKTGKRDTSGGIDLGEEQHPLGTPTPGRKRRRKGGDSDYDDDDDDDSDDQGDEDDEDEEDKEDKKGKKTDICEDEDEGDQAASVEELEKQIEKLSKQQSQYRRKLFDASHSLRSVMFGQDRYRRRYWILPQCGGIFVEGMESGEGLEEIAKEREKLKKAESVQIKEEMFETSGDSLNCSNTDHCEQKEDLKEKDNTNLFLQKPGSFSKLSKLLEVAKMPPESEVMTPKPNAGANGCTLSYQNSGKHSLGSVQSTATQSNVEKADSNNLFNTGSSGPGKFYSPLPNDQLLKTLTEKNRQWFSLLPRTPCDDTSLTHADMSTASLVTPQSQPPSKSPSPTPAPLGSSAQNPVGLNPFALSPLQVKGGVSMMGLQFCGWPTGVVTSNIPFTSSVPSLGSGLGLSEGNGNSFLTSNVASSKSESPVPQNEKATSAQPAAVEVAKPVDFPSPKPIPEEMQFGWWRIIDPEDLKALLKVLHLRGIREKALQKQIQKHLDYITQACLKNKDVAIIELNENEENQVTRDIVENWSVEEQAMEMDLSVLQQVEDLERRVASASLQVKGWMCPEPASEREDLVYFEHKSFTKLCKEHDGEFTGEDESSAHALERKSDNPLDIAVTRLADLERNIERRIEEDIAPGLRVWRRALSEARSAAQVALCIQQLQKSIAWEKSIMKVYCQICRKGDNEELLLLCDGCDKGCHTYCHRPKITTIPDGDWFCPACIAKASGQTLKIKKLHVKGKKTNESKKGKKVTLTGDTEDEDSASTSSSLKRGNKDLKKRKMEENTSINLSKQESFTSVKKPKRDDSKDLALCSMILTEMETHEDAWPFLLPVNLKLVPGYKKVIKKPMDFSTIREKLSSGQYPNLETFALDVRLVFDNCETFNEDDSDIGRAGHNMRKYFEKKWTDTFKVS
How it was run: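 Multi-concentration screen (max 110 uM) measuring displacement of acetylated histone H3 peptide from BAZ2B by AlphaScreen, using 50 nM protein, 50 nM peptide and 10 ug/mL streptavidin donor plus Ni-chelate acceptor beads.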
% is scaled to controls: 0 for no effect and ±100 for the full control effect; potency is read from the fitted curve at half-maximal effect; tags tell the direction and shape of the fitted curve.
Also: nearly all actives have a fitted effect of over 60% in size.

Row | Compound | activity change, negative = inhibition | Potency
1 | CCc1cccc(NC(=O)c2sc3nc4n(c(=O)c3c2C)CCC4)c1 | inactive: -18.4% | 
2 | O=C1CCCN1CC(CN1CCOCC1)Sc1nnnn1-c1ccccc1 (stereo not drawn) |  | inconclusive: 89.1 µM [inhibitor, single point]
3 | CCCc1cc(=O)oc2c(CNc3ccc(OCC)cc3)c(O)ccc12 |  | inconclusive: 89.1 µM [inhibitor, single point]
4 | C/C(=N\NC(=O)c1ccccc1F)c1ccccn1 |  | active: 20 µM
5 | Cc1nnc(SCC2=C(C(=O)O)N3C(=O)C(NC(=O)c4cc(F)c(F)cc4Cl)C3SC2)s1 (stereo not drawn) |  | active: 79.4 µM
6 | CCCn1c(N2CCN(Cc3ccc(Cl)cc3)CC2)nc2ccccc21 |  | inconclusive: 56.2 µM [inhibitor, partial curve]
7 | Cc1ccccc1-c1nc(S(=O)(=O)c2ccc(Cl)cc2)c(NCCN2CCOCC2)o1 |  | inconclusive: 50.1 µM [inhibitor, partial curve]
8 | Nc1nc(-c2cc3ccccc3o2)cs1 | inactive: -32% | 
9 | O=C(CSc1nc2ccccc2c(=O)n1CCCC(=O)N1CCCC1)NCc1ccco1 | inactive: -8.8% | 
10 | O=C1C2C3C=CC(C4CC34)C2C(=O)N1/N=C/c1ccc(-c2ccccc2[N+](=O)[O-])o1 (stereo not drawn) |  | inconclusive: 44.7 µM [inhibitor, partial curve]
11 | Cc1ccc(C(c2nnnn2C2CCCC2)N2CCN3CCCC3C2)cc1 (stereo not drawn) | inactive: -0.722% | 
12 | c1ccc(C(CN2CCOCC2)c2ccccc2)cc1 | inconclusive: -56.4% [inhibitor] | 
13 | O=S(=O)(c1cccc(NC(=S)N2CCN(c3ccc(F)cc3)CC2)c1)C(F)F |  | inconclusive: 50.1 µM [inhibitor, partial curve]
14 | CCOC(=O)NC(=O)/C(C#N)=C\Nc1sccc1C(=O)OC |  | inconclusive: 50.1 µM [inhibitor, partial curve]
15 | Cc1ccc2nc(C3CCN(C(=O)c4ccco4)CC3)[nH]c2c1 |  | inconclusive: 79.4 µM [inhibitor, single point]
16 | CCOc1ccc(C(=O)NCC(=O)OCC(=O)Nc2nnc(-c3ccccc3)o2)cc1 |  | inconclusive: 89.1 µM [inhibitor, single point]
17 | Cc1cc(C(c2nnnn2Cc2ccccc2)N2CCOCC2)c(C)n1-c1ccc2c(c1)OCO2 (stereo not drawn) |  | inconclusive: 44.7 µM [inhibitor, partial curve]
18 | CCN1CCN(C(CC(C)C)c2nnnn2CS(=O)(=O)c2ccc(C)cc2)CC1 (stereo not drawn) |  | inconclusive: 79.4 µM [inhibitor, partial curve]
19 | COc1ccc(CN2CCCC(C(=O)N3CCCC3)C2)c(OC)c1 (stereo not drawn) |  | active: 50.1 µM
20 | CCOc1ccc(S(=O)(=O)N(C)c2ccc(OCC(=O)NCCc3ccc(OC)cc3)cc2)cc1 |  | inconclusive: 79.4 µM [inhibitor, single point]
21 | CN(C)c1ccc(C(=O)N(Cc2ccccc2)Cc2ccccc2)cc1 | inactive: 7.11% | 
22 | C(=N\N1CCOCC1)/c1nc(-c2ccccc2)n2ccccc12 |  | inconclusive: 56.2 µM [inhibitor, partial curve]
23 | CCCCN(CC)C(=O)c1cc2c(=O)n3cccc(C)c3nc2s1 |  | inactive
24 | Cc1cccn2c(=O)c3cc(C(=O)NC4CCCCC4)c(=N)n(Cc4ccccc4)c3nc12 |  | active: 25.1 µM
25 | CCN(CC)CCCNC(=O)c1[nH]c2ccccc2c1Sc1ccc(Cl)cc1 |  | inconclusive: 70.8 µM [inhibitor, single point]

Row | Compound | activity change, negative = inhibition | Potency
26 | COc1cc(Br)cc(CNc2ccc(F)c([N+](=O)[O-])c2)c1O |  | inconclusive: 44.7 µM [inhibitor, partial curve]
27 | CCOC(=O)c1c(C)[nH]c(/C(C)=N/O)c1C |  | inconclusive: 79.4 µM [inhibitor, single point]
28 | N#CCCN(C(=O)COC(=O)c1cc2ccccc2oc1=O)c1ccccc1 | inactive: -7.16% | 
29 | O=C(CSc1nc2ccccc2c2nc3ccccc3n12)NCc1ccco1 |  | inconclusive: 89.1 µM [inhibitor, single point]
30 | CC(C)N(Cc1ccccc1)C(=O)/C=C/c1ccccc1[N+](=O)[O-] |  | inconclusive: 79.4 µM [inhibitor, single point]
31 | Cc1c(C(=O)NC(C)c2ccccc2)sc2nc3n(c(=O)c12)CCCC3 (stereo not drawn) | inactive: -9.18% | 
32 | NS(=O)(=O)c1ccc2nc(NC(=O)COc3ccc(Cl)cc3Cl)sc2c1 | inactive: 3.31% | 
33 | O=C(NCCCn1ccnc1)/C(=C\c1ccco1)NC(=O)c1ccco1 |  | active: 89.1 µM
34 | COc1cc(C(=O)c2c(C)c(CCC#N)n3ccccc23)cc(OC)c1OC |  | inconclusive: 79.4 µM [inhibitor, single point]
35 | CN(C)c1ccc(NC(=O)CSC2=Nc3ccccc3C3=NC(CCC(=O)NCc4cccs4)C(=O)N23)cc1 (stereo not drawn) |  | inconclusive: 39.8 µM [inhibitor, partial curve]
36 | Cc1cccc(/C=N/NC(=O)c2c(-c3ccccc3)noc2C)c1O |  | active: 25.1 µM
37 | Cn1cccc1/C=N/NC(=O)C12CC3CC(CC(C3)C1)C2 | inactive: -35% | 
38 | COc1ccc2c(CNCc3cccs3)c(C(=O)O)n(Cc3ccccc3F)c2c1 |  | inconclusive: 70.8 µM [inhibitor, single point]
39 | Cc1ccc(/C=C2\SC(=S)N(CCCC(=O)NNC(=O)c3ccccc3O)C2=O)cc1 |  | inconclusive: 79.4 µM [inhibitor, partial curve]
40 | c1ccc(CCC2Cc3ccccc3N2)cc1 (stereo not drawn) |  | inconclusive: 39.8 µM [inhibitor, partial curve]
41 | CC(C)(C)c1ccc(C(=O)OCC(=O)Nc2sc3c(c2C#N)CCC3)cc1 | inactive: 6.23% | 
42 | O=C(/C=C/c1cccc(Br)c1)NCc1ccncc1 | inactive: -8.34% | 
43 | CCOC(=O)N1CCN(C(=O)c2ccc3c(c2)N=C(C)c2cc(Cl)ccc2S3)CC1 |  | inconclusive: 22.4 µM [inhibitor, full curve]
44 | COC(=O)c1ccccc1NC(=O)N1CCN(c2ccc(OC)cc2)CC1 |  | inconclusive: 39.8 µM [inhibitor, partial curve]
45 | COC(=O)[C@]1(C)CCC[C@@]2(C)C3CC[C@]4(OC(C)=O)C[C@@]3(CCC21)CC4=O (stereo partly drawn) |  | inconclusive: 89.1 µM [inhibitor, single point]
46 | CC(=O)c1c(-c2ccccc2)c2ccccc2[nH]c1=O |  | inconclusive: 89.1 µM [inhibitor, single point]
47 | CN(C)c1ccc(N=Nc2cccc3ccoc23)cc1 |  | active: 5.62 µM
48 | COc1ccc(O)c(-c2cc(-c3ccccc3[N+](=O)[O-])[nH]n2)c1 |  | inconclusive: 79.4 µM [inhibitor, single point]
49 | CCCNC(=O)CSc1nc(-c2ccc(OC)cc2)cc(C(F)(F)F)n1 | inactive: -2.26% | 
50 | COc1ccc(C(=O)NCCn2cc(SCC(=O)Nc3ccc4c(c3)OCCO4)c3ccccc32)cc1OC | inactive: -31.2% | 

Row | Compound | activity change, negative = inhibition | Potency
51 | CCOC(=O)Cn1c(=O)n(-c2ccccc2OC)c2nc(-c3ccc(C(C)C)cc3)nc(C(N)=O)c21 | inactive: -38.8% | 
52 | Cc1n[nH]c(C)c1CCC(=O)N/N=C/c1c(C)[nH]c2ccccc12 |  | inconclusive: 3.55 µM [inhibitor, single point]
53 | C=CCN(CC=C)CCCOc1ccc(C)cc1OC |  | active: 25.1 µM
54 | COc1cc(/C=N/N2CCCCC2)cc([N+](=O)[O-])c1O |  | active: 44.7 µM
55 | COc1cccc(CNC(=O)c2cc(=O)[nH]c3ccc(S(=O)(=O)N4CCOCC4)cc23)c1 |  | inconclusive: 100 µM [inhibitor, single point]
56 | Fc1ccc(-n2nnc(-c3ccccc3Cl)n2)cc1 |  | inconclusive: 89.1 µM [inhibitor, single point]
57 | CC(=O)Nc1ccc(NC(=O)CCS(=O)(=O)c2ccc3c(c2)CC(=O)N3C)cc1 | inactive: -1.04% | 
58 | O=S(=O)(NCCN1CCOCC1)c1cccs1 | inactive: -0.663% | 
59 | Cc1ccc(NC(=O)CSc2ncc3ccccn23)cc1C |  | inconclusive: 50.1 µM [inhibitor, partial curve]
60 | CCOc1cccc(NC(=O)C(Cc2cccs2)c2nn[nH]n2)c1 (stereo not drawn) |  | inconclusive: 89.1 µM [inhibitor, single point]
61 | O=C(ON=C1CCN(S(=O)(=O)c2ccccc2)CC1)c1ccc(F)cc1 | inactive: -0.29% | 
62 | CCCCn1c(N)c(N(CC(C)C)C(=O)c2ccco2)c(=O)[nH]c1=O | inactive: 9.36% | 
63 | CC(C)(C)C1CCC2(CC1)C(C#N)=C(SCC(=O)Nc1ccccc1)NC(=O)C2C#N (stereo not drawn) |  | inconclusive: 50.1 µM [inhibitor, partial curve]
64 | Cc1ccc(-c2ccc(/C=C/C(=O)c3ccccc3)o2)cc1 |  | inconclusive: 25.1 µM [inhibitor, partial curve]
65 | COc1cc(OC)cc(C(=O)N2CCC(N3CCN(c4ccccc4OC)CC3)CC2)c1 |  | active: 50.1 µM
66 | COc1ccc(-c2csc(NC(=O)COC(=O)c3ccc(Br)o3)n2)cc1 | inactive: -0.695% | 
67 | CCC(NS(=O)(=O)c1ccc2c(c1)Cc1cc(S(=O)(=O)NC(CC)C(=O)O)ccc1-2)C(=O)O (stereo not drawn) |  | inconclusive: 89.1 µM [inhibitor, single point]
68 | N#C/C(=C/c1ccccc1)C(=O)OCC(=O)Nc1ccccc1[N+](=O)[O-] |  | inconclusive: 50.1 µM [inhibitor, partial curve]
69 | Nc1ccc2nc3c(=O)[nH]c(=S)[nH]c3nc2c1 |  | active: 31.6 µM
70 | O=C(N/N=C/c1ccco1)c1cc(-c2cccc3ccccc23)n[nH]1 |  | inconclusive: 44.7 µM [inhibitor, partial curve]
71 | Cc1ccc(NC(=O)NNS(=O)(=O)c2ccc(Br)cc2)cc1 | inactive: 15% | 
72 | O=C(NC(=S)Nc1ncc(Br)cc1Br)c1cncc(Br)c1 | inactive: -2.17% | 
73 | Cc1ccc(OCCC(=O)O)cc1 |  | inconclusive: 89.1 µM [inhibitor, single point]
